Source: article PMC4336329 (PLoS ONE, 2015)
In all, about 310,000 compounds went through this assay and about 2,200 (0.71%) showed an effect of 50% or more. The effect is printed as a negative number. Some of the results follow.

Target: human ether-à-go-go-related gene (hERG) potassium channel (human, UniProt Q12809)
Test: primary screen, population patch clamp on CHO cells stably expressing hERG

Sequence of human ether-à-go-go-related gene (hERG) potassium channel (Q12809 whole entry, looked up): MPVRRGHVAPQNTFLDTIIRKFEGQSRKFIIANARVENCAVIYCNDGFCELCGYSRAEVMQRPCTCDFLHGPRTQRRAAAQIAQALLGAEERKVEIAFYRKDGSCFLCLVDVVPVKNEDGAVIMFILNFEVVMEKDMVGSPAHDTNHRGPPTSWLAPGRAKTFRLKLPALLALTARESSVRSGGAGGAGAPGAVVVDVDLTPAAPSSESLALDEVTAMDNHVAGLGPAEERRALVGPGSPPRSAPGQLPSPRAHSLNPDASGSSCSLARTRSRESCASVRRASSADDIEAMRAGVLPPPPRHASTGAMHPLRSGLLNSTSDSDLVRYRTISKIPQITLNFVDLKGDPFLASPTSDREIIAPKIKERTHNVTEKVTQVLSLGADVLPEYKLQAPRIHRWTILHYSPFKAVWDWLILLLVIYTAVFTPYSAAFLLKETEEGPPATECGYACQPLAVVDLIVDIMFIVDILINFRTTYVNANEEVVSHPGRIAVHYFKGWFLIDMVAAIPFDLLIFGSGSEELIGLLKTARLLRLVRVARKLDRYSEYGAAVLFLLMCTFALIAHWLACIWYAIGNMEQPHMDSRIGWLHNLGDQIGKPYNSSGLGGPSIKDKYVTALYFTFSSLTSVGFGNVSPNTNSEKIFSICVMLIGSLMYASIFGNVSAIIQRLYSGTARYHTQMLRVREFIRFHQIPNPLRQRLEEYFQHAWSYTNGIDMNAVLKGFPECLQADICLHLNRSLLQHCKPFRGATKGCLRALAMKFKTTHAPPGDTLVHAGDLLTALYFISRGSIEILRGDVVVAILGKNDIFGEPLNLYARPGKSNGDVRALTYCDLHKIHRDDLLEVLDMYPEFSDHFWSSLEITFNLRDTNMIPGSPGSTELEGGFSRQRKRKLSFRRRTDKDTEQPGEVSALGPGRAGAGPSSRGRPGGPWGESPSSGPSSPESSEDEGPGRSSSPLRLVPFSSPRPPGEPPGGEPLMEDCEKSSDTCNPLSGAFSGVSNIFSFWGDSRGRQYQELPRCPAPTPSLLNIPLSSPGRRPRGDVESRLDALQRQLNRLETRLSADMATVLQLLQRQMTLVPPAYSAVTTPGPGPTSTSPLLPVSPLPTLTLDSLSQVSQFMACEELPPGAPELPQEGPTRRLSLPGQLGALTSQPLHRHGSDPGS

Structure (SMILES) | hERG current change (%, negative = inhibition) at 1uM [%]
Cc1cc(CN(C)C(=O)c2cc(COc3ccc4ncccc4c3)on2)on1 | 12.3
O=C(CN1C(=O)NC2(CCCC2)C1=O)N1CCN(c2ccccc2O)CC1 | -2.47
O=C(COc1nc2ccccc2nc1N1CCOCC1)NCC(F)(F)F | 10.2
CCC(=O)c1ccc(O)cc1 | 17.5
Cc1cc(C)n(-c2ccc(C(=O)Nc3nc4ccccc4s3)cc2)n1 | -5.03
O=[N+]([O-])c1ccc(N2CCN(c3ccccc3)CC2)nc1 | 13.3
Cc1ccc(-n2c(C)nnc2SC(C)C(=O)N2CCCC2)cc1 (centres unmarked) | 11.6
CCc1nc(C)ccc1OCC(=O)NCCCN(C)C.O=C(O)C(=O)O | 7.43
CC(NC(=O)OCc1ccccc1)C(=O)Oc1cc2oc(=O)cc(-c3ccccc3)c2cc1Cl (centres unmarked) | 9.47
Cc1ccc(C)c(-n2c(Cc3cc(=O)[nH]c(=O)[nH]3)nnc2SCC(=O)NCc2ccco2)c1 | 6.13
COc1ccc(-n2c(SCC(N)=O)nc3sc4c(c3c2=O)CCN(C)C4)cc1 | 17.2
CC1=C(C(=O)Nc2ccccc2)C2(CCCCC2)C(C#N)=C(S)N1 | 6.12
CC(Oc1ccccc1)C(=O)Nc1oc(-c2ccco2)c(-c2ccco2)c1C#N (centres unmarked) | 13.8
NS(=O)(=O)c1ccc(CCNC(=O)C(c2ccccc2)c2ccccc2)cc1 | 11.6
Cc1noc(C)c1COc1ccc(C(=O)OCC(=O)OC(C)(C)C)cc1 | 11.7
CCCC(=O)Nc1c2c(nn1-c1ccc(OC)cc1)CS(=O)C2 (centres unmarked) | 11
COc1ccc(C(=O)NC(C)c2nnc(SCC(=O)Nc3nc4ccccc4s3)n2C)cc1 (centres unmarked) | -4.28
CC(C)CN(C(=O)c1ccc(N2CCCC2=O)cc1)c1c(N)n(Cc2ccccc2)c(=O)[nH]c1=O | 20.2
O=C(CCN1C(=O)C2C3C=CC(C4CC34)C2C1=O)Oc1ccccc1 (centres unmarked) | -4.6
O=C(C1=NNCC1c1ccccc1)C1OC1c1ccccc1 (centres unmarked) | 8.77
Cc1ccc(SCC(=O)NCc2ccccc2)cc1 | 12.8
CN(C)c1cc[n+](CC(=O)Nc2c(Cl)cc(Cl)cc2Cl)cc1.[Cl-] | 13.4
S=C(c1ccc2c(c1)OCO2)N1CCCCC1 | 11

Structure (SMILES) | hERG current change (%, negative = inhibition) at 1uM [%]
Cc1ccc(N2C(=O)CC(Sc3cccs3)C2=O)cc1 (centres unmarked) | 13.2
COC(=O)N/N=C/c1c(C)c(C(=O)c2ccc(F)cc2)n2ccccc12 | -3.99
CCNC(=O)OCc1cn(-c2ccc(Cl)cc2)nn1 | 17.1
COc1ccc(CCNc2ccncn2)cc1OC.Cl | -0.346
CCCCCCCCN=Cc1c(O)[nH]c(=O)[nH]c1=O | 12.7
O=C(NC1CCCC1)C(c1ccncc1)N(Cc1cccs1)C(=O)c1csnn1 (centres unmarked) | -4.78
CCOC(=O)C1CCCN(C(=O)CS(=O)(=O)Cc2ccccc2)C1 (centres unmarked) | 11.7
CC1(C)Oc2ccc3ccc(=O)oc3c2/C(=N/O)C1=O | 20.3
CCCc1[nH]c(=O)c(C#N)c2c1CCCC2 | 20.1
COCCn1c(=S)[nH]c2cc(C(=O)N3CCc4ccccc43)ccc2c1=O | 16.9
S=C(NCC1CCCCC1)Nc1cccnc1 | 0.642
COc1cccc(NC(=O)c2nc(SC)ncc2Cl)c1 | 14.8
CCOC(=O)c1cc(-c2ccccc2)nn1CC1CC(c2ccc(Cl)cc2)=NO1 (centres unmarked) | 9.53
Cc1cc(NC(=O)CN2C(=O)NC(C)(c3ccc(OC(F)F)cc3)C2=O)no1 (centres unmarked) | 4.51
COc1ccccc1CCC(=O)N1CCC(n2nccc2NC(=O)CC(C)C)CC1 | 11.1
Nc1ncnc(Nc2ccccn2)c1[N+](=O)[O-] | 8.1
Cc1ccc2cc3cc(C(=O)NC4CCCCC4)oc3nc2c1 | 14.8
C[C@H](NC(=O)c1nc[nH]c1C(=O)NC1CC[NH2+]CC1)C(=O)OC(C)(C)C.[Cl-] | 16.1
CCCN1C(=O)C(NS(=O)(=O)c2ccc(N)cc2)(C(F)(F)F)C(C(=O)OC)=C1C (centres unmarked) | 8.47
O=C(CCn1c(=O)c2sccc2n(Cc2cc(=O)n3ccccc3n2)c1=O)NCc1ccco1 | -25.1
Cn1c(SCc2nc(-c3cccs3)no2)nnc1C1CCCCC1 | 2.84
COc1ccc(CCNC(=O)CCc2nnc(Cc3ccc4c(c3)OCO4)o2)cc1 | 6.31
COc1ccc2c(c1)OC[C@H]1[C@H]2N2C(=O)CN(Cc3ccc(F)cc3)C(=O)[C@@]2(C)[C@H]1c1ccccc1 | 9.37

Structure (SMILES) | hERG current change (%, negative = inhibition) at 1uM [%]
O=C(CSc1cnc2ccccc2n1)c1ccc(F)cc1 | 13.6
O=C(NC1CCCCCC1)c1ccc(CS(=O)Cc2cccc(Cl)c2)o1 (centres unmarked) | 5.33
O=C(COC(=O)c1ccc(F)cc1)NCc1ccc(F)cc1 | 6.68
O=C(O)/C(=C\c1cccc(OCc2ccccc2)c1)c1ccc(F)cc1 | -0.954
Cc1ccc(Cn2c(=S)[nH]c3ccccc3c2=O)cc1 | 15.4
COc1ccc(N2C(=O)CC(Cc3ccccc3OC)C2=O)cc1 (centres unmarked) | 9.24
O=C(OCc1cccc([N+](=O)[O-])c1)c1cc2ccccc2oc1=O | 12.5
CN1CCN(Cc2c(O)ccc3occ(C(=O)c4ccccc4)c23)CC1 | -14.3
CN1CCc2c(sc(NC(=O)Cc3ccc(F)cc3)c2C(N)=O)C1.Cl | 21.1
O=[N+]([O-])c1ccc2[nH]c(O)c(N=NC(=S)Nc3cccnc3)c2c1 | 10.8
O=C(NOC(=O)c1ccccc1)c1ccccc1 | 11.8
c1ccc2nc3c(nc2c1)CCc1nonc1-3 | -6.7
Cc1nc(SCc2cccc(C(=O)O)c2)nc2c1CCCC2 | 15
COc1ccc2nc(NC(=O)C3CCCN(S(=O)(=O)c4cccc5nsnc45)C3)sc2c1 (centres unmarked) | 13.2
CCN(CC)CCCNC(=O)c1c(O)c2ccccc2n(Cc2ccccc2)c1=O.Cl | -12.3
CCSc1ncc(/C=N/Nc2ccc([N+](=O)[O-])cc2)n1C | 8.28
Cc1cc(CN2CCCC(CNC(=O)c3ccc(F)cc3)C2)cc(C)c1O (centres unmarked) | -14.5
CCOc1ccc(S(=O)(=O)Nc2ccccc2C(=O)NCc2ccco2)cc1 | -8.28
O=C(c1ccccc1NS(=O)(=O)c1ccccc1[N+](=O)[O-])N1CCOCC1 | 8.91
Cc1ccccc1C(=O)Nc1cc(S(=O)(=O)N2CCCCC2)ccc1N1CCN(C)CC1 | 3.19
Cc1ccccc1NC(=O)CC(=O)Nc1ccccc1C | 11.8
O=C(Nc1ccccc1N1CCOCC1)c1cccnc1Cl | 10.8
CC(OC(=O)Cc1ccccc1[N+](=O)[O-])C(=O)Nc1ccc(Cl)cn1 (centres unmarked) | 4.9

Structure (SMILES) | hERG current change (%, negative = inhibition) at 1uM [%]
Cc1cccc(NC(=O)COc2ccccc2C)n1 | 11.5
O=C(CC1Sc2ncnn2C1=O)Nc1ccccc1 (centres unmarked) | 0.262
COc1ccc(C2=NC(=O)NC2c2ccc(OC)cc2)cc1 (centres unmarked) | -4.75
CCCCc1nc(SCC(=O)N2CCCC2)c2c(=O)n(C)c(=O)n(C)c2n1 | 7.93
C/C(=N/NC(=O)c1ccc(C)s1)c1cccc(NC(=O)COc2ccc(Cl)cc2C)c1 | 7.53
O=C(CC1OCC2CCCN2C1=O)Nc1ccc([N+](=O)[O-])cc1 (centres unmarked) | 8.79
CCOC(=O)NCc1ccccc1 | -5.01
COc1ccc(C2CCN(CC(=O)N(C)C)CC2O)cc1 (centres unmarked) | 26.2
COC(=O)c1ccccc1NC1=C/C(=N\S(=O)(=O)c2ccc(C(=O)O)cc2)c2ccccc2C1=O | 13.2
Cc1ccc(CN2CC(C(=O)Nc3ccccc3N3CCCC3)CC2=O)cc1 (centres unmarked) | 0.137
CCc1c(C)nc(SCC(=O)c2cccs2)c(C#N)c1C | 11.9
CC1=C(C(=O)Nc2ccccn2)C(c2ccc(Br)cc2)n2ncnc2N1 (centres unmarked) | 9.18
COc1cccc(-c2csc(N3CCN(CC(=O)NNC(=O)c4ccc(Br)cc4)CC3)n2)c1 | -2.77
CN(C)C(=O)c1cc(C(=O)c2ccc(C(F)(F)F)cc2F)c[nH]1 | 2.12
COc1ccccc1N(C)S(=O)(=O)c1ccc(C(=O)N2CCC(C(N)=O)CC2)cc1 | 16.2
CCCN(C#N)c1nc(NCC)nc(NC(C)C)n1 | -1.12
CCCNC(=O)c1cc(Cl)c(NC(=O)C2=CSCCO2)cc1OC | 12.5
CC(OC(=O)c1cccc(-n2cnnn2)c1)C(=O)Nc1ccc(F)cc1 (centres unmarked) | 9.34
NC(=O)C1CCN(C(=O)COc2ccc(S(=O)(=O)NC3CCCC3)cc2)CC1 | 17.7
CC(C)CCNC(=O)CN(Cc1ccc(F)cc1)C(=O)CCC(=O)Nc1ccccn1 | -6.67
